# PubChem BioAssay (NCATS)
# Values joined by “and” are separate entries in the source; they are usually repeats but may differ in a detail not shown here. Equal entries are not always repeated. The list shows a part of the results. Shown are side measurements of this screen, not its main read-out; they come without a call. For some assays here: Most of these compounds were active or inconclusive in the main read-out, so they are no random draw. For some assays here: Potencies come from curve fits of mixed quality, noted in brackets.
# How the values were obtained:
# [1] = qHTS Assay for Lipid Storage Modulators (AID 1519); conditions: Drosophila S3 cells, BODIPY lipid droplet/cell ratio, laser cytometry, cells loaded with oleic acid
# Summary of the method: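 Cells seeded at 5,000 per well were treated with compounds over a concentration series and loaded with oleic acid (400 uM, as added). Lipid droplet fluorescence (488 nm excitation, 500-530 nm channel) was read by laser-scanning cytometry and normalized to 20 uM Triacsin C.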
# [2] = qHTS Assay for Modulators of Human Peripheral Myelin Protein 22 (PMP22) Expression/Activity (AID 1967); conditions: Cell-based PMP22 reporter, dual-color luciferase ratio
# Summary of the method: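 Engineered MSC80 cells, Pmp22-promoter green and EF-alpha red luciferase reporters; 24h compound treatment at 37 °C. Concentration-response fits on green, red and ratio signals, each overlap-corrected, with %Activity normalized to untreated wells.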
# [3] = target: Catechol O-methyltransferase (Homo sapiens) (UniProt P21964); test: Confirmatory Screen for Target Class Profiling of Small Molecule Inhibitors of Methyltransferases (AID 1745852); conditions: MTase-Glo luminescence, SAH detection, recombinant enzyme; measured here: COMT inhibition potency;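 note: inhibitor potency for blocking SAH production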
# Sequence of UniProt P21964 (P21964 whole entry, looked up): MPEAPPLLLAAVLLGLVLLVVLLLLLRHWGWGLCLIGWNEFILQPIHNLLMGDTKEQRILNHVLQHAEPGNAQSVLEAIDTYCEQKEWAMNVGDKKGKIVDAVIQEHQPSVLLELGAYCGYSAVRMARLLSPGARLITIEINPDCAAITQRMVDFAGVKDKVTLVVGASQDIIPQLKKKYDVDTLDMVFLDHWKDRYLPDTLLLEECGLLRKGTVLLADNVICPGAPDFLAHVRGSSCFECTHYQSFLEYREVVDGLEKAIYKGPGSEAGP
# [4] = qHTS Validation Assay to Find Inhibitors of Chronic Active B-Cell Receptor Signaling (AID 485345); conditions: ABC-DLBCL cells, chronic BCR signaling reporter
# Summary of the method: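 Read-out: ratio of filter-corrected green (IkappaBalpha fusion) to red (native) luciferase signal in doxycycline-induced TMD8 cells after 4 h at 37C. Titration spanned 46 uM–3 nM; Data were normalised to basal cells and 10 uM MG-132 wells.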
# [5] = A High-Content qHTS Against Drug Library for the Identification of Small Molecules that Inhibit DYT1 Early Onset Primary Dystonia-Associated Cell Pathology (AID 1645839); conditions: HEK293 Flp-In EGFP-delE TorsinA, punctate imaging, 48 h; measured here: cell count cytotoxicity
# Summary of the method: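 High-content imaging quantified EGFP-TorsinA mislocalization in HEK293-derived cells inducibly expressing DYT1 mutant torsinA, after 48 h exposure to compound given together with tetracycline induction. Cell count served as a toxicity channel alongside %pathology.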
# [6] = qHTS drug screen for cell cycle checkpoint inhibitors in PARPi-resistant BRCA-mutant ovarian cancer cell lines. (AID 1963452); conditions: PEO1/OlaR viability, CellTiter-Glo luminescence, 96 h
# Summary of the method: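 PEO1, PEO4 and PEO1/OlaR ovarian cancer cells, 600 per well, exposed 96 h at 37C to a dilution series. Viability read by CellTiter-Glo luminescence, normalized to DMSO and empty wells; activity summarized as Z-AUC.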
# [7] = qHTS for identification of novel therapeutic agents for treatment of microphthalmiaassociated transcription factor (MiT) renal cell carcinoma (RCC) (AID 1963991); conditions: CellTiter-Glo, 48 h; for z-score: stronger effect = lower value
# Summary of the method: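 Three TFE3-fusion RCC lines (UOK109, UOK124, UOK145), 500 cells/well in complete medium, were treated with MIPE 4.0 compounds for 48 hours at 37 C. Viability was by CellTiter-Glo luminescence, normalized to DMSO (100%) and empty wells (0%); curves fitted over 11 concentrations.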
# [8] = Nrf2 qHTS screen for inhibitors: Validation (AID 493153); conditions: A549 ARE-Fluc reporter, 18-24 h; AC50: CellTiter-Fluor fluorescence read, measured here: cytotoxicity CellTiter-Fluor AC50; viability change: measured here: cytotoxicity max response
# Summary of the method: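 A549 ARE_Fluc, 5% FBS OPTI-MEM; cpd titration, 18-24 h, 37°C/5% CO2. Read 1: CellTiter-Fluor (Ex 405/Em 525), cytotox. Read 2: luciferase lum, Nrf2 activity.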
# [9] = S16 Schwann cell PMP22 intronic element beta-lactamase assay (AID 624044); conditions: S16 rat Schwann cells, PMP22 element beta-lactamase FRET, 24 h; measured here: 460 nm blue channel; note: nearly all actives have a fitted effect of over 15% in size
# Summary of the method: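 Beta-lactamase reporter under a PMP22 intronic regulatory element in stable S16 rat Schwann cells; 24 h compound exposure. 460 nm blue signal normalized between DMSO (0%) and potassium clavulanate, with 535 nm FRET tracking viability; curves classed by r2 and response.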
# [10] = measured here: cell count channel max response
# [11] = measured here: cell number channel AC50
# [12] = measured here: lipid (BODIPY) channel AC50
# [13] = measured here: lipid channel max response
# [14] = measured here: red reporter channel AC50, EF-alpha promoter control reporter in MSC80 mouse Schwann cells
# [15] = measured here: green reporter channel AC50, mouse Pmp22 promoter in mouse Schwann cells
# [16] = measured here: CBG/CBR ratio read-out
# [17] = measured here: CBR control luciferase (viability counter)
# [18] = TFE3-RCC UOK109 viability, measured here: UOK109 Z-AUC
# [19] = TFE3-RCC viability, measured here: UOK124 Z-AUC
# [20] = TFE3-RCC viability, measured here: UOK145 Z-AUC
# [21] = TFE3-RCC viability, measured here: UOK145 cell viability
# Tags give direction and shape of the fitted curve.
smiles,measurement,setting,value
C=CCN1CCc2c(cc(O)c(O)c2Br)[C@@H](c2ccccc2)C1,max response,[1]; [10],57.3%
same,AC50,[1]; [11],"28.2 µM [falling, partial curve, poor fit]"
same,AC50,[1]; [12],"28.2 µM [falling, partial curve, poor fit]"
same,max response,[1]; [13],56.7%
same,AC50,[2]; [14],"15.1 µM [falling, full curve, poor fit]"
same,IC50,[3],"17.2 µM [rising, partial curve]"
CNCCCC12CCC(c3ccccc31)c1ccccc12,max response,[1]; [10],44.1%
same,AC50,[1]; [11],"39.8 µM [rising, single point]"
same,AC50,[1]; [12],"39.8 µM [rising, single point]"
same,max response,[1]; [13],54.4%
same,AC50,[2]; [15],"21.3 µM [falling, full curve]"
same,AC50,[2]; [14],"23.9 µM [falling, full curve]"
same,AC50,[4]; [16],"23.1 µM [falling, partial curve]"
same,AC50,[4]; [17],"9.2 µM [falling, partial curve]"
same,AC50,[5],"10 µM [falling, partial curve, poor fit]"
same,AC50,[6]; measured here: PEO1 parental viability,"17.4 µM [falling, single point]"
same,AC50,[6]; measured here: PEO4 viability,"12.3 µM [falling, partial curve]"
same,z-score,[7]; [18],-0.112
same,z-score,[7]; [19],-0.164
same,AC50,"[7]; TFE3-RCC viability, measured here: UOK124 cell viability","23.5 µM [falling, partial curve]"
same,z-score,[7]; [20],-0.119
same,AC50,[7]; [21],"26.4 µM [falling, partial curve]"
Nc1ccc(S(=O)(=O)Nc2cnc3ccccc3n2)cc1,max response,[1]; [10],30.6%
same,AC50,[1]; [11],"25.1 µM [rising, single point]"
same,AC50,[1]; [12],"25.1 µM [rising, partial curve]"
same,max response,[1]; [13],43.7%
same,AC50,[5],"2.82 µM [falling, partial curve, poor fit]"
CN1C(C(=O)Nc2ccccn2)=C(O)c2ccccc2S1(=O)=O,max response,[1]; [10],32.9% and 22.7% and -17.4%
same,AC50,[1]; [11],"8.91 µM [rising, full curve, poor fit] and 5.01 µM [falling, full curve, poor fit]"
same,AC50,[1]; [12],"10 µM [rising, full curve, poor fit] and 11.2 µM [rising, partial curve, poor fit] and 5.01 µM [falling, full curve, poor fit]"
same,max response,[1]; [13],47.7% and 32.5% and -17.9%
same,AC50,[4]; [17],"6.51 µM [rising, single point]"
same,viability change,[8],-2.87%
same,AC50,[5],"3.55 µM [rising, full curve, poor fit]"
same,z-score,[7]; [18],-0.501
same,z-score,[7]; [19],0.524
same,z-score,[7]; [20],-0.0479
same,AC50,[7]; [21],"37.2 µM [falling, partial curve, poor fit]"
COc1c(-c2coc3cc4c(cc3c2=O)CC(OC(C)=O)C(C)(C)O4)ccc2c1C=CC(C)(C)O2 (centres undefined),max response,[1]; [10],-35.1%
same,AC50,[1]; [11],"2.24 µM [falling, full curve]"
same,AC50,[1]; [12],"2.24 µM [falling, full curve]"
same,max response,[1]; [13],-104%
CCCCCCCCNC(C)C(O)c1ccc(SC(C)C)cc1 (centres undefined),max response,[1]; [10],-104%
same,AC50,[1]; [11],"25.1 µM [falling, single point]"
same,AC50,[1]; [12],"22.4 µM [falling, single point]"
same,max response,[1]; [13],-109%
same,AC50,[5],"11.2 µM [falling, partial curve, poor fit]"
NS(=O)(=O)c1cc2c(cc1Cl)NC(CSCc1ccccc1)=NS2(=O)=O,max response,[1]; [10],1.24% and 32%
same,AC50,[1]; [11],"8.91 µM [rising, partial curve, poor fit]"
same,AC50,[1]; [12],"14.1 µM [rising, partial curve, poor fit] and 12.6 µM [rising, partial curve, poor fit]"
same,max response,[1]; [13],5.1% and 47.1%
same,AC50,[9],"190 nM [falling, full curve, poor fit]"
same,AC50,[5],"35.5 µM [rising, single point]"
N#Cc1cccc(-c2nc(NCCN3CCOCC3)c3ccccc3n2)c1,max response,[1]; [10],9.46%
same,AC50,[1]; [11],"0.891 µM [rising, full curve]"
same,AC50,[1]; [12],"0.708 µM [rising, full curve]"
same,max response,[1]; [13],8.81%
C[C@@H]1CN(CCCn2c3ccccc3c3ccccc32)C[C@H](C)N1,max response,[1]; [10],47.4%
same,AC50,[1]; [11],"28.2 µM [rising, partial curve, poor fit]"
same,AC50,[1]; [12],"31.6 µM [rising, partial curve, poor fit]"
same,max response,[1]; [13],61%
same,AC50,[5],"3.16 µM [falling, full curve]"
COc1ccc2[nH]cc(CCNc3ncncc3-c3ccccc3C)c2c1,max response,[1]; [10],9.6%
same,AC50,[1]; [11],"0.708 µM [rising, full curve]"
same,AC50,[1]; [12],"0.708 µM [rising, full curve]"
same,max response,[1]; [13],12.1%
CNCC(O)c1ccc(O)c(O)c1 (centres undefined),max response,[1]; [10],19% and 40.6%
same,AC50,[1]; [11],"15.8 µM [falling, single point]"
same,AC50,[1]; [12],"44.7 µM [rising, partial curve, poor fit] and 15.8 µM [falling, single point]"
same,max response,[1]; [13],38% and 42.9%
same,AC50,[2]; [15],"84.9 µM [falling, single point]"
same,AC50,[2]; [14],"95.3 µM [falling, single point]"
same,AC50,[4]; [16],"0.651 µM [falling, single point]"
same,AC50,[5],"35.5 µM [rising, single point]"
